Experimental data: publication PMC12136788
The list shows a part of the results.

T1: UNK ZnF1-3 (human, UniProt Q9C0B0 31-174)
T1 sequence: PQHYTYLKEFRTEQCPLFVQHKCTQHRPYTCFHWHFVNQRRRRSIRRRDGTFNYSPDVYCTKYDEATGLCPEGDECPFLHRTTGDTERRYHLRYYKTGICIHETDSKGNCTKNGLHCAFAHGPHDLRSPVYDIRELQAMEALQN

B1: chr11:64088491:64088492:+_ENSG00000126432_ENST00000265462|hu_hu|motif|central (ssRNA)
RNA: GGGAGUUCUACAGUCCGACGAUCCACCAUGGAGAACCUCUUGAGACGUCGAUUCCCAAAGAUGGACACCAGCGAAUCAUCGGGUAAUAAGUCUGUCUCCUUCCCAAAGGCCCCAGUGGGAUCAGCCAGGAGCCGAACCUUGCCCAACAGAGGAUUGAGCAUCA
B2: chr2:34631547:34631548:+_ENSMUSG00000026864_ENSMUST00000100171|mus_mus|FALSE|FALSE (ssRNA)
RNA: GGGAGUUCUACAGUCCGACGAUCUGGGGGAGGGCCUCCACUUCCAUAGAGUUUGCUGAUAAUUGGCUGAACAAUUUCUUCUAGUUCCUUCUUUUUGGCUUUAAAGUCUUCAAUGUCCGCAUCCUGGUGGCUUUCCAGCCAUUCCAACAGAGGAUUGAGCAUCA
B3: chr4:144460044:144460045:+_ENSG00000153147_ENST00000283131|hu_mus|hu_hu_hu_mus_False|8_88 (ssRNA)
RNA: GGGAGUUCUACAGUCCGACGAUCACGGUCCAUAGCCUGAAGAUCAACUUGGGGAUUCCAAUCUGAGUCAUAUAAAAUGACUACAUCAGCAGUUGCAAGAUUGAUGCCCAGACCACCAGCACGUGUGCUUAACAUGAAUACAAACAACAGAGGAUUGAGCAUCA
B4: 72180598_72180718_2139_3pUTR_ENSG00000080371_ENST00000261263|human|control|control (ssRNA)
RNA: GGGAGUUCUACAGUCCGACGAUCAAAUGAAAGCUAUUGCAGAAGUGAAAUUCAACAUGAGCCACCCAAAUUCUUCUAAGGUAACCAUUCUAAAGCAAAAUCAGCAGAAGUCAUCUCUUCUAUAAUAACAAACAAAAAACCCAACAACAGAGGAUUGAGCAUCA
B5: chr14:103803487:103803488:+_ENSG00000100664_ENST00000558506|hu_mus|hu_hu_hu_mus_True|28_28 (ssRNA)
RNA: GGGAGUUCUACAGUCCGACGAUCGAGUUUAUGAUGUGUGUCAAGCAUGCCUCGGUACCCACAGGCUUUACAAGAAUUACCUAUUGUUUGCUUCUUUGGAUUGACAUGCAAAUCUGUUUCAGGAUUCUCACACUCAGGACAGAGCAACAGAGGAUUGAGCAUCA
B6: chr10:88205819:88205820:+_ENSMUSG00000060904_ENSMUST00000116234|mus_hu|FALSE|FALSE (ssRNA)
RNA: GGGAGUUCUACAGUCCGACGAUCCUUCAUUUCAGGGGAGAAGAAUGGACUGAAUUACUGUCUGCUUUUUAAUGUUUCAACUAACCAUUCCAUUGCCUCAUCAAGGCCGGUGCCUUUGGUUGCUGACGUUUUGAAUAUCUGCCACAACAGAGGAUUGAGCAUCA
B7: chr9:116041357:116041358:+_ENSG00000136875_ENST00000374198|hu_hu|motif|central (ssRNA)
RNA: GGGAGUUCUACAGUCCGACGAUCUUCUCUUCUUUCAGCAGGACCCUCUCCAAAAAGUGUGAUGGGUUCCCCCAAGGCUCGGAGGCAAGCUUUGACCUCUGAGUCAUCUGUGGAAACAUUGAUCUGCCGGGCUCGCUUCCUUCUCAACAGAGGAUUGAGCAUCA
B8: chr7:28127222:28127223:-_ENSMUSG00000089832_ENSMUST00000003857|mus_hu|FALSE|FALSE (ssRNA)
RNA: GGGAGUUCUACAGUCCGACGAUCAUUGGGGAGGGUGACUUUGGCUUCCAGAAAAGAGGGAAGGUGGGGACCUAGUAACAAUAACCAUUUAUUCCAAGGAGGCCCUGGCCCUGAACCCGGGGUUCCCACAGGAAUCAGGGAGGCCAACAGAGGAUUGAGCAUCA
B9: chr15:76588000:76588001:-_ENSG00000140374_ENST00000560595|hu_hu|FALSE|FALSE (ssRNA)
RNA: GGGAGUUCUACAGUCCGACGAUCGGACACUUCACCUCCAAGGCGUGUGGCUGCAGUAAUGGUAUUUAAAGUAAUGGGUGCUAGGGAAUCAUUUGCAUGCUCAGCUAUUACCAGGGUACUCUGAAAUCGUAGCAAUGAGGCCGCCAACAGAGGAUUGAGCAUCA
B10: chr16:8858281:8858282:+_ENSMUSG00000022507_ENSMUST00000023150|mus_hu|FALSE|FALSE (ssRNA)
RNA: GGGAGUUCUACAGUCCGACGAUCGACAAAUUCAUUAGGUGCAUUUGAAAGUAAACGCAAUGGAAAAAAGUAACAAAUGCUAAAGUUUUCUAAAAGUUUAAUGAAGCCAAUAAGGCAUAUAAAUUGUGUUCUGGCAGACAUUAACAACAGAGGAUUGAGCAUCA
B11: chr10:94110891:94110892:+_ENSG00000198060_ENST00000358935|hu_mus|FALSE|FALSE (ssRNA)
RNA: GGGAGUUCUACAGUCCGACGAUCCUCUGGAUAAUUUAGGAUUUUGCGGUGUGCCUGACGUAAAUAUUGCUGCUGUUUGAAGUAAACCUUAAAUGCUCCUUUUAUGGCAACAAAAGCAAUUCCACCCAAGAUUGUCCUUUGUAACAACAGAGGAUUGAGCAUCA
B12: 27598453_27598573_1137_CDS_ENSG00000115234_ENST00000233575|human|control|control (ssRNA)
RNA: GGGAGUUCUACAGUCCGACGAUCGGAGGUGACCCGCCAGCAUCGCAUGCGGGUGACCCGGAAGGAGCCUUCUCGGAGUUGCUGGCCAGGCAGGCGGAGCUGCAGGCUGAGCUCACUGUUGCCCGCGCUCACCACCACAGGACACAACAGAGGAUUGAGCAUCA
B13: 96234110_96239110_754_CDS_ENSMUSG00000032412_ENSMUST00000034983|mouse|control|control (ssRNA)
RNA: GGGAGUUCUACAGUCCGACGAUCAACAUGCCGUUUUUUCCCAUAAUAUGGAAAAUACUUUAAGUCUAAAACUCCAAAUUCAGGAUAAGUUGCUAUAGUUGCGUUUUCUUCCUUUGGCAAACACGAUAUUUGUGGAUAUCCGUCCAACAGAGGAUUGAGCAUCA
B14: chr6:108204272:108204273:-_ENSG00000025796_ENST00000369002|hu_hu|FALSE|FALSE (ssRNA)
RNA: GGGAGUUCUACAGUCCGACGAUCUUGCUCUCUAUCAGAGUCUCUGUCACUACCAUCAUCUUUCUCACUUUGGGAAUCUCUAUUGGUUUCUUCUUCUUCAGAAUCACUGCCCUUAUCUGAAACUUCUUCUUCAUCUUCCUUUACCAACAGAGGAUUGAGCAUCA

The binders below were run against T1, UNK ZnF1-3 (assay: nsRBNS (natural sequence RNA bind-n-seq); RBNS binding buffer (assumed for nsRBNS): 25 mM Tris pH 7.5, 150 mM KCl, 3 mM MgCl2, 0.01% Triton X-100, 500 ug/ml BSA, 20 U/ml SUPERase-In, 4 C; UNK is unkempt and MSI1 is Musashi-1; names of the RNAs are library labels; protein concentration not given here; high values mean tight binding).
Binder B1 has a binding signal of 1.13 enrichment R.
Work on B2 yielded a binding signal of 0.347 enrichment R.
In the case of B3, the binding signal is reported as 1.27 enrichment R.
In the case of B4, the binding signal is reported as 2.29 enrichment R.
With B5 the binding signal was 1.14 enrichment R.
B6 gave a binding signal of 0.763 enrichment R.
B7 showed a binding signal of 0.692 enrichment R.
Binder B8 has a binding signal of 1.41 enrichment R.
For B9, the binding signal was 1.13 enrichment R.
B10 showed a binding signal of 1.12 enrichment R.
B11 showed a binding signal of 1 enrichment R.
Binder B12 has a binding signal of 0.825 enrichment R.
Work on B13 yielded a binding signal of 0.805 enrichment R.
Binder B14 has a binding signal of 0.428 enrichment R.
